Test results: article PMC4336329 (PLoS ONE, 2015)
About 2,200 (0.71%) of roughly 310,000 compounds showed an effect of 50% or more. The effect is printed as a negative number. Some of the results follow.

molecular target: human ether-à-go-go-related gene (hERG) potassium channel (human, UniProt Q12809); assay: primary screen, population patch clamp on CHO cells stably expressing hERG
Sequence (Q12809 whole entry, looked up): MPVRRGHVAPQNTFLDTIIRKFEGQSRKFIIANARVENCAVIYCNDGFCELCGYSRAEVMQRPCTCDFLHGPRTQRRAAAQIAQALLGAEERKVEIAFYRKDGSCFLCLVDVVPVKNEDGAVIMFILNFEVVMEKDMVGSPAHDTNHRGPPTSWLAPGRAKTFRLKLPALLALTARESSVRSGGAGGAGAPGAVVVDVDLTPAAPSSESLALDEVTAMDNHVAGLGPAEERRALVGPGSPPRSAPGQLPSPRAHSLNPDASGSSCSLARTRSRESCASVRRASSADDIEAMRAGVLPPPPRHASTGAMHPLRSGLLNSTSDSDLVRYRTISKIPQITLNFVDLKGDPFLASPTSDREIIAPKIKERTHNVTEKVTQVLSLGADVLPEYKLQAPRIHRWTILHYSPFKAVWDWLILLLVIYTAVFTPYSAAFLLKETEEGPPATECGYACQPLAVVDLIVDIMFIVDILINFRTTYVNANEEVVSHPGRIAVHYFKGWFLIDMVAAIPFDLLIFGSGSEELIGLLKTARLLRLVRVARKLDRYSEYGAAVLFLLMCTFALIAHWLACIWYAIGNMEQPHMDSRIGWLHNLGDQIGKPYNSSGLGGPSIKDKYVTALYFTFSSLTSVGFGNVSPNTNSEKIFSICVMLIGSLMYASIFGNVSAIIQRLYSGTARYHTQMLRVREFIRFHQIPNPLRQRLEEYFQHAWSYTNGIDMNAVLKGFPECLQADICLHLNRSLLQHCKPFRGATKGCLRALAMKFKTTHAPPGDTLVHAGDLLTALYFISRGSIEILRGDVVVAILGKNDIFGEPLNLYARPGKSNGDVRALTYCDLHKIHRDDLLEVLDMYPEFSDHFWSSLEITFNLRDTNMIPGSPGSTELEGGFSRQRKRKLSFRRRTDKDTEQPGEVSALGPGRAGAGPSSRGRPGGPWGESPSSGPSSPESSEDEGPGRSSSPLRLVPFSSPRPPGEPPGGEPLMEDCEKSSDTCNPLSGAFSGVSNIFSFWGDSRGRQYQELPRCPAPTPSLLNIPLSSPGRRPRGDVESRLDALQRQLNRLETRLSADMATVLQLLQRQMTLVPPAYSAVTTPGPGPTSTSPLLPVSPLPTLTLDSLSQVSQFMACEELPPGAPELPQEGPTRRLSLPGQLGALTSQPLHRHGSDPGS

Going from `COc1ccc(Cc2c(C)nc(N)nc2Cl)cc1` to `COc1cccc(NC(=O)c2sc(Cl)nc2C)c1`, the “hERG current change (%, negative = inhibition) at 1uM” value rises from 10.6% to 25.1%.

First: CN(C)S(=O)(=O)c1ccc(N2CCN(S(=O)(=O)c3ccc(F)cc3)CC2)c(Cl)c1
Second: COc1cccc(CNS(=O)(=O)c2cccc(S(=O)(=O)N3CCOCC3)c2)c1
The “hERG current change (%, negative = inhibition) at 1uM” value of the first is higher: 9.5% for the first, 8.94% for the second.

First: O=C(C1=C[C@H](c2ccccc2)C[C@H](OCc2ccc(CO)cc2)O1)N1CCN(Cc2ccc3c(c2)OCO3)CC1
Second: COc1ccc(N(CC(=O)NCc2ccc3c(c2)OCO3)C(=O)CCC(=O)Nc2ccccn2)cc1
The “hERG current change (%, negative = inhibition) at 1uM” value of the first is lower: -10.2% for the first, 14.8% for the second.

Compared with `CC(C)NC(=O)CSc1nc2ccccc2n1-c1ccccc1`, `CCn1c(SCC(=O)Nc2ccc(C(=O)OC)cc2)nc2cccnc21` is lower in “hERG current change (%, negative = inhibition) at 1uM” value: 9.59% for the first, -0.675% for the second.

Going from `CCn1cc(C(C)(C)C)c(C#N)c1NC(C)=O` to `Cn1cnc([N+](=O)[O-])c1Sc1ccc(C(C)(C)C)cc1`, the “hERG current change (%, negative = inhibition) at 1uM” value rises from 3.92% to 4.26%.

Going from `CCN1C(=O)c2ccc(C(=O)NCc3ccc4c(c3)OCO4)cc2C1=O` to `N=c1c(C(=O)NCc2ccc3c(c2)OCO3)cc2c(=O)n3ccccc3nc2n1CC1CCCO1` (stereo not shown), the “hERG current change (%, negative = inhibition) at 1uM” value falls from -5.44% to -84.2%.

Going from `CC(C)Nc1nc(Oc2ccc(Cl)cc2Cl)cc(C(F)(F)F)n1` to `COc1ccc(S(=O)(=O)Nc2ccc(NC(C)=O)cc2)cc1Cl`, the “hERG current change (%, negative = inhibition) at 1uM” value rises from 7.4% to 10.3%.

Going from `Cc1ccc(CN2CCNC(=O)C2CC(=O)N(C)C2CCCCC2)cc1` (stereo not shown) to `COc1ccc(OC(C)C(=O)NC2CCCCCC2)cc1` (stereo not shown), the “hERG current change (%, negative = inhibition) at 1uM” value rises from 8.49% to 9.61%.

Compared with `CC(Oc1ccc(F)cc1)C(=O)Nc1sc2c(c1C(=O)NCc1cccnc1)CCCC2` (stereo not shown), `COc1ccc(/C=C2\Sc3ccc(C(=O)NCc4cccnc4)cc3N(C)C2=O)cc1OC` is higher in “hERG current change (%, negative = inhibition) at 1uM” value: -1.6% for the first, 4.76% for the second.

Going from `Cc1noc(C)c1S(=O)(=O)N(CC(=O)NCc1ccc2c(c1)OCO2)c1ccc(C(C)C)cc1` to `CC(C)c1nnc(NC(=O)c2ccc3c(c2)OCO3)s1`, the “hERG current change (%, negative = inhibition) at 1uM” value falls from 10.2% to 4%.

Going from `C[C@@H]1CC[C@@]23COC(=O)C2=CCC[C@@H]3[C@@]1(C)CC/C(=C/CO)CO` to `Cc1ccc(OCC(=O)N2CCC(Cc3ccccc3)CC2)c([N+](=O)[O-])n1`, the “hERG current change (%, negative = inhibition) at 1uM” value falls from 10.2% to -32.1%.

Compared with `COc1ccc2c(c1)cc(C(=O)N[C@@H](Cc1ccccc1)C(=O)N[C@@H](C)C(=O)O)n2C`, `CCc1ccccc1NC(=O)NNC(=O)CCc1ccc(OC)cc1` is higher in “hERG current change (%, negative = inhibition) at 1uM” value: 14.1% for the first, 16.3% for the second.

Compared with `COC(=O)c1cc(NC(=O)c2cccc(F)c2)cc(C(=O)OC)c1`, `CNS(=O)(=O)c1cccc(C(=O)OCC(=O)Nc2ccc(Cl)cc2F)c1` is lower in “hERG current change (%, negative = inhibition) at 1uM” value: 12.2% for the first, 10.5% for the second.

First: CCCCn1c(N)c(N(CCOC)C(=O)COC(=O)COc2c(C)cccc2C)c(=O)[nH]c1=O
Second: Cc1cccc(N2CCN(C(=O)c3c(Cl)cnn3C)CC2)c1C
The “hERG current change (%, negative = inhibition) at 1uM” value of the first is higher: 6.64% for the first, -7.51% for the second.

Going from `CNC(=O)/C(C#N)=c1\s/c(=C/C(=O)OC)c(=O)n1-c1ccccc1` to `O=C(O)CCN1C(=O)c2ccc(NC(=O)COc3ccccc3)cc2C1=O`, the “hERG current change (%, negative = inhibition) at 1uM” value falls from 16.4% to 14.4%.

Going from `COc1ccccc1OCCCn1cc(C=O)c2ccccc21` to `COc1ccc(-c2cc3ccccc3nc2N)cc1OC`, the “hERG current change (%, negative = inhibition) at 1uM” value falls from 11% to 10.4%.

First: CC(=O)N1c2ccc(S(=O)(=O)N(C)CC(=O)N(C)Cc3ccccc3)cc2CC1C (stereo not shown)
Second: CC(=O)N1CCOc2ccc(S(=O)(=O)NCCc3cccc(C)c3)cc21
The “hERG current change (%, negative = inhibition) at 1uM” value of the first is higher: 10.2% for the first, 3.36% for the second.

Going from `CCc1nnc(NC(=O)c2sc3nc(C)cc(COC)c3c2N)s1` to `COc1ccc2cnnc(SCC(=O)Nc3ccc(C(=O)O)cc3)c2c1OC`, the “hERG current change (%, negative = inhibition) at 1uM” value rises from -0.926% to 2.85%.

Compared with `COc1ccc(NC(=O)CSc2nnc(CC(=O)Nc3ccc(F)cc3)n2C)cc1`, `COc1ccc(NC(=O)c2ccc(-n3cccn3)nc2)cc1` is higher in “hERG current change (%, negative = inhibition) at 1uM” value: 8.65% for the first, 11% for the second.

Going from `CCOC(=O)c1cc(-c2ccncc2)nc2c1c(C)nn2-c1ccccn1` to `COc1ccc2cc3c(N)nn(C(=O)c4cccc([N+](=O)[O-])c4)c3nc2c1`, the “hERG current change (%, negative = inhibition) at 1uM” value rises from -18.1% to 5.91%.

First: Cc1ccccc1C(=O)Nc1ccc(C(=O)N/N=C/c2ccc(O)cc2)cc1
Second: O=C(Cn1c(=O)sc2ccccc21)Nc1ccc(O)cc1
The “hERG current change (%, negative = inhibition) at 1uM” value of the first is higher: 19% for the first, 12.2% for the second.

First: Cc1nnc(SCC(=O)N2CCC(c3noc4ccc(F)cc34)CC2)s1
Second: COc1ccccc1-n1cnnc1SCC(=O)N1CCN(C(=O)c2ccco2)CC1
The “hERG current change (%, negative = inhibition) at 1uM” value of the first is lower: -9.72% for the first, 7.03% for the second.

Compared with `CC(C)CCNC(=O)c1onc(CSc2nc3ccccc3[nH]2)c1C(=O)NCCC(C)C`, `Cc1c(C(=O)NNC(=O)c2csc(N3CCOCC3)n2)oc2ccccc12` is lower in “hERG current change (%, negative = inhibition) at 1uM” value: 4.61% for the first, -4.69% for the second.

First: CCn1c(/C=N/n2cnnc2)nc2ccccc21
Second: CC(C)(C)c1nn2cnnc2n(/N=C/c2ccc(O)cc2)c1=O
The “hERG current change (%, negative = inhibition) at 1uM” value of the first is higher: 5.93% for the first, -1.39% for the second.

Compared with `COc1ccccc1-c1c(C(F)(F)F)oc2cc(OC(=O)c3cccc([N+](=O)[O-])c3C)ccc2c1=O`, `COc1ccccc1-c1cc(C(=O)Nc2c(F)cc(F)cc2Br)no1` is lower in “hERG current change (%, negative = inhibition) at 1uM” value: 17.2% for the first, -2% for the second.

Going from `Cc1cc(NC(=O)c2ccc([N+](=O)[O-])cc2)no1` to `Cc1nc(-c2ccc([N+](=O)[O-])cc2)nc2[nH]ccc(=O)c12`, the “hERG current change (%, negative = inhibition) at 1uM” value rises from 13.7% to 14.5%.

Going from `CC(=O)c1ccc(C(=O)NC2CCCN(Cc3ccc(Cl)cc3)C2)s1` (stereo not shown) to `COC(=O)c1ccc(NC(=S)N2CCN(Cc3ccccc3OC)CC2)cc1`, the “hERG current change (%, negative = inhibition) at 1uM” value rises from -28.7% to 6.63%.

Going from `Cc1cccn2c(=O)c(C=C(C#N)C#N)c(N3CCN(C)CC3)nc12` to `N#Cc1c(F)cccc1N1CCOCC1`, the “hERG current change (%, negative = inhibition) at 1uM” value rises from 11.8% to 15.1%.

Going from `COc1ccc(NC(=O)COC(=O)/C=C/c2cccs2)c(OC)c1` to `COc1ccc(OC)c(Nc2nc(NCc3ccco3)nc(N)c2[N+](=O)[O-])c1`, the “hERG current change (%, negative = inhibition) at 1uM” value rises from -2.57% to 3.91%.

First: COc1ccc(CCNC(=O)CNS(=O)(=O)c2ccc(Br)cc2)cc1
Second: CCCNS(=O)(=O)c1ccc(OCC(=O)N2CCc3ccccc3C2)c(C)c1
The “hERG current change (%, negative = inhibition) at 1uM” value of the first is higher: 12% for the first, -21% for the second.

Going from `CC1=CC(c2ccc(Cl)cc2)n2ncnc2N1` (stereo not shown) to `COc1ccccc1NC(=O)N1CCc2[nH]c3ccc(Cl)cc3c2C1`, the “hERG current change (%, negative = inhibition) at 1uM” value falls from 8% to 4.85%.

Compared with `CC1CCCCC1NS(=O)(=O)CCNC(=O)c1ccccc1` (stereo not shown), `CC(NC(=O)C1CCC(CNS(=O)(=O)c2ccccc2)CC1)c1ccccc1` (stereo not shown) is higher in “hERG current change (%, negative = inhibition) at 1uM” value: 10.2% for the first, 14.8% for the second.

First: O=C(OC(c1ccccc1)c1nccc2ccccc12)c1cc([N+](=O)[O-])cc([N+](=O)[O-])c1 (stereo not shown)
Second: F[B-](F)(F)F.O=[N+]([O-])c1ccc2nc(-[n+]3c(-c4ccccc4)cc(-c4ccccc4)cc3-c3ccccc3)[nH]c2c1
The “hERG current change (%, negative = inhibition) at 1uM” value of the first is higher: 19.3% for the first, 3.72% for the second.

First: C[C@H](N)c1nnc(SCC(=O)N(C)C)o1.Cl
Second: CN(C)C(CNC(=O)CSc1nnc(-c2ccco2)o1)c1ccccc1 (stereo not shown)
The “hERG current change (%, negative = inhibition) at 1uM” value of the first is lower: 2.17% for the first, 9.23% for the second.

First: O=C1c2ccccc2C(=O)N1CCCCON1C(=O)c2ccccc2C1=O
Second: O=C(C1COc2ccccc2O1)N1CCc2ccccc21 (stereo not shown)
The “hERG current change (%, negative = inhibition) at 1uM” value of the first is lower: 10.3% for the first, 13.3% for the second.

First: Cc1cc(C)c(S(=O)(=O)N2CCCOC2CNC(=O)C(=O)NCCC2=CCCCC2)c(C)c1 (stereo not shown)
Second: Cc1cc(C)c(S(=O)(=O)NC2CC2)c(C)c1
The “hERG current change (%, negative = inhibition) at 1uM” value of the first is lower: 9.54% for the first, 10.2% for the second.

Compared with `Cc1cccc(Nc2nc(NCc3ccco3)nc(N3CCOCC3)n2)c1`, `COc1ccc(C(=S)N2CCOCC2)cc1OC(=O)c1cccc([N+](=O)[O-])c1` is higher in “hERG current change (%, negative = inhibition) at 1uM” value: -18% for the first, -0.0836% for the second.

Compared with `Cc1cccc(N2CCN(C(=O)c3ccccc3NC(=O)C3CC=CCC3C(=O)O)CC2)c1` (stereo not shown), `CCN1CCN(Cc2ccc(NC(=O)c3cc(NC(=O)c4cnnc5ccccc45)cc(OC)c3)cc2C(F)(F)F)CC1` is lower in “hERG current change (%, negative = inhibition) at 1uM” value: 14.9% for the first, 8.23% for the second.

Compared with `O=C(/C(=C(\[O-])c1ccccc1)[n+]1ccc2ccccc2c1)c1ccccc1`, `O=C(O)c1cncc(SCc2ccccc2)n1` is higher in “hERG current change (%, negative = inhibition) at 1uM” value: -2.07% for the first, 8.34% for the second.

First: FC(F)(F)C1=NC(C(F)(F)F)=NP(N2CCOCC2)(N2CCOCC2)=N1
Second: COc1ccc(OCC(=O)N2N=C(C(F)F)CC2(O)C(F)F)cc1 (stereo not shown)
The “hERG current change (%, negative = inhibition) at 1uM” value of the first is lower: 8.04% for the first, 10.3% for the second.

First: CCOc1ccc(CN(CCO)CCO)cc1[N+](=O)[O-].Cl
Second: C/C=C/c1c(F)c(F)c(Oc2ccc(C(=O)O)cc2)c(F)c1F
The “hERG current change (%, negative = inhibition) at 1uM” value of the first is lower: -44.1% for the first, 4.99% for the second.

First: c1ccc(C2NCCc3[nH]cnc32)cc1 (stereo not shown)
Second: CCn1c(=O)n(CC)c2cc(S(=O)(=O)N3CCc4ccccc43)ccc21
The “hERG current change (%, negative = inhibition) at 1uM” value of the first is lower: 5.64% for the first, 14% for the second.

For `C=CCSc1nnc(N2C(=O)C(O)=C(C(=O)c3ccco3)C2c2ccccc2F)s1` (stereo not shown), the “hERG current change (%, negative = inhibition) at 1uM” value was 14.7%.
